Test results as given in article PMC4336329 (PLoS ONE, 2015).
Screen size: about 310,000 compounds; about 14,000 (4.5%) showed an effect of 50% or more. The effect is printed as a negative number. Some of the results follow.

These compounds were tested against human ether-à-go-go-related gene (hERG) potassium channel (human, UniProt Q12809) (assay: primary screen, population patch clamp on CHO cells stably expressing hERG).
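Further: peak tail current of the secondary pulse compared with the same well before compound.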

Sequence of human ether-à-go-go-related gene (hERG) potassium channel (Q12809 whole entry, looked up): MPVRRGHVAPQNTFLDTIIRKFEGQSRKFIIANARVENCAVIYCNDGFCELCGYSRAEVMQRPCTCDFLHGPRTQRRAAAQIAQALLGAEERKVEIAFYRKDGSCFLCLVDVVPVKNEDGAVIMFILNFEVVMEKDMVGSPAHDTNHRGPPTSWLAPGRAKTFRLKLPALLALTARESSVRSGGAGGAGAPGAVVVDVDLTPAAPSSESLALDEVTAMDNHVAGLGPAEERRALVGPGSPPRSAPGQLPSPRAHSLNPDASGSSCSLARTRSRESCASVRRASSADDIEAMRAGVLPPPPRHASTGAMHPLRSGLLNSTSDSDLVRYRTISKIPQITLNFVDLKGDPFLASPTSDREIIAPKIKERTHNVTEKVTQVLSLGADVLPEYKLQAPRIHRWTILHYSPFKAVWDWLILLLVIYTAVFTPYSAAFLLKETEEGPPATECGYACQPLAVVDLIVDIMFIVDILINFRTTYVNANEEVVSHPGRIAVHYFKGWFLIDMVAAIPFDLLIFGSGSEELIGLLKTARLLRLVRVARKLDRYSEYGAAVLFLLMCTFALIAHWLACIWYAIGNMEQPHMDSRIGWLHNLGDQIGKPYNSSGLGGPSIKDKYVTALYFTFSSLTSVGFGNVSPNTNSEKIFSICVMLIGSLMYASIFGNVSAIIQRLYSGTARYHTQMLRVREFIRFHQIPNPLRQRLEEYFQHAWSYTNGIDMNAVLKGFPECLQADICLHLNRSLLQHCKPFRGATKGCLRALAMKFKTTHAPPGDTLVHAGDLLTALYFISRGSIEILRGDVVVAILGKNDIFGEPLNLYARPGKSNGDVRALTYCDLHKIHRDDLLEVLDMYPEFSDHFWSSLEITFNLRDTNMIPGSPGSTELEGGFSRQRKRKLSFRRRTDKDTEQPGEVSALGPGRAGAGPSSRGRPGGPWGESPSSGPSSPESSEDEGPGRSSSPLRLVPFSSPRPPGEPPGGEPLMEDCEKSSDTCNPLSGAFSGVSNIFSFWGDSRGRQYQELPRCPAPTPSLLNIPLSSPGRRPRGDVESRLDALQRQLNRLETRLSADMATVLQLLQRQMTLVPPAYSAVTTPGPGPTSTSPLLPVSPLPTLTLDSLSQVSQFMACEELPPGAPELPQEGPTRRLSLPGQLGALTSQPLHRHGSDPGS

Compound | hERG current change (%, negative = inhibition) at 10uM
Cc1cccc(N2CCN(CC(=O)Nc3ccc(S(=O)(=O)N4CCOCC4)cc3)CC2)c1C | -44.9%
O=C(COC(=O)Cc1ccsc1)Nc1ccc(Cl)cn1 | 18.8%
O=C(C1COc2ccccc2O1)N1CCN(c2nc3c(F)cc(F)cc3s2)CC1 (stereo not shown) | -16.6%
CSc1scc2c1-c1nc(SCC(=O)C(C)(C)C)ncc1CC2 | 11%
O=C1CC(c2ccccc2)CC(O)=C1C=Nc1ccc(O)cc1 (stereo not shown) | -4.73%
CC1CCCC(C)N1C(=O)c1ccc(S(=O)(=O)NCc2ccco2)cc1 (stereo not shown) | 4.25%
CCCNC(=S)N1CCN(C)CC1.O=C(O)C(=O)O | 19.2%
O=C(NNC(=O)C1CCN(Cc2cccc(F)c2)CC1)c1cccc(Cl)c1 | -8.28%
O=C(C1=C[C@@H](c2ccc3c(c2)OCO3)C[C@@H](OCCCCO)O1)N1CCN(Cc2ccc3c(c2)OCO3)CC1 | -65.9%
Cc1ccc(C)n1-c1ccc(C(=O)NC2CCN(Cc3ccccc3)CC2)cc1 | -65.5%
Cc1cc(NCC(C)C)n2ncnc2n1 | 14%
Cc1ccc(-c2nn(CCC(=O)NCC3CCCO3)c(=O)c3ccccc23)cc1 (stereo not shown) | -12.4%
NC(=O)CSc1nnc(-c2ccoc2)o1 | 11.8%
Nc1c(Cl)cnc(C(Cl)(Cl)Cl)c1Cl | -8.58%
Cc1ccc(S(=O)(=O)N(C)C(C)CCc2ccco2)cc1 (stereo not shown) | -9.1%
O=C1CC(C(=O)N2CCCc3ccccc32)CN1c1ccc(Cl)cc1 (stereo not shown) | -45.6%
O=C(COC(=O)Cc1ccsc1)NCc1ccc(Cl)cc1 | 10.6%
Cc1ccc(-c2nc3n(n2)Cc2ccccc2-3)cc1 | -6.88%
Cc1onc(-c2ccccc2Cl)c1C(=O)NCCCc1ccccc1 | -10.1%
O=C(CCC(=O)N1CCOc2ccccc21)NCCCc1ccccc1 | -17.5%
CC1CC(C)CN(c2ccc(C(=O)NCc3ccc4c(c3)OCO4)cc2[N+](=O)[O-])C1 (stereo not shown) | 5.2%
COc1ccc(S(=O)(=O)N2CCCC(C(=O)NCCc3ccccc3)C2)cc1 (stereo not shown) | 12.9%
Cc1cc(/C=N/n2cnnc2)c(C)n1-c1ccc(OCc2ccccc2F)cc1 | 5.61%

Compound | hERG current change (%, negative = inhibition) at 10uM
COCCn1c(C)cc(C(=O)CSc2nncn2-c2ccccc2)c1C | -15%
CC(=O)N1CCOc2ccc(S(=O)(=O)NCc3ccccc3Cl)cc21 | -11.6%
O=C1Nc2ccccc2C1=Nc1ccc(-c2nnc3n2CCCCC3)cc1 | 15.4%
CCC(=O)Nc1ccc2c(c1)C(=O)N(C1CCCCC1)C2=O | 14.4%
CCOc1ccc(S(=O)(=O)NC(C)C(=O)NCc2ccncc2)cc1 (stereo not shown) | 9.19%
COc1cccc(OCCCn2ccnc2)c1.Cl | 16.5%
CSc1ccc(C2=CC(=O)C[C@H](c3ccc(F)cc3)C2)cc1 | 4.96%
Cc1cc(Cl)c2oc(C(=O)N(C)CCc3cnn(C)c3)c(C)c2c1 | 3.12%
Cc1nn(-c2ccccc2)c(C)c1C1C(C#N)=C(N)Oc2n[nH]c(C)c21 (stereo not shown) | -2.92%
O=C(Nc1nccs1)c1ccc(COc2ccccc2Br)o1 | -6.85%
O=C(c1ccc(=O)[nH]c1)N(Cc1cccs1)C1(C(=O)NC2CCCC2)CCCCC1 | -17%
O=C(Nc1ccccc1)c1cccc(Cn2cc(C(F)(F)F)ccc2=O)c1 | -10.8%
O=C(NN1C(=O)C2C3C=CC(C3)C2C1=O)c1cccc(Cl)c1 (stereo not shown) | 10.9%
COc1ccccc1OCc1nc(Cc2ccc(Cl)cc2)no1 | -31.4%
CCC(C)NC(=O)C1CCC(=O)N1Cc1ccc(C)cc1 (stereo not shown) | 17.6%
Cc1cc(NC(=O)CSc2nnnn2-c2ccccc2)no1 | -9.38%
CCOc1ccc(CCNC(=O)CCn2cccc2)cc1OCC | 9.34%
Cc1ccccc1C(=O)/C=C1/c2ccccc2CC(C)(C)N1C | -30%
COc1ccc(N2C(=O)NC3CC2(C)Oc2ccccc23)cc1OC (stereo not shown) | -8.91%
Cn1c(=O)cc(OCCCC(=O)NCCC2=CCCCC2)c2ccccc21 | -9.04%
O=C(COc1ccccc1C(=O)c1cnn(-c2ccccc2)c1)Nc1ccccc1 | 11.4%
O=C(CN1C(=O)NC2(CCOc3ccccc32)C1=O)c1ccc[nH]1 (stereo not shown) | -3.83%
O=C(CCCOC(=O)c1ccc(O)cc1O)c1ccc(F)cc1 | -11.6%
